Here are results for 15 molecules from patent US9556117B2, “Indole carboxamide derivatives as P2X7 receptor antagonists” (ACTELION PHARMACEUTICALS LTD, priority 2012, dated 2017).

Broadly, the IC50 is the concentration needed to halve the response being measured.

This test deals with human recombinant P2X7 receptor (Homo sapiens (Human), UniProt Q99572). Put plainly: YO-PRO1 assay, P2X7 receptor antagonistic activity. As to conditions: HEK-293 cells expressing human recombinant P2X7 receptor; YO-PRO-1 fluorescence; ATP 250 μM for 90 minutes.
Chain of UniProt Q99572 (Q99572 whole entry): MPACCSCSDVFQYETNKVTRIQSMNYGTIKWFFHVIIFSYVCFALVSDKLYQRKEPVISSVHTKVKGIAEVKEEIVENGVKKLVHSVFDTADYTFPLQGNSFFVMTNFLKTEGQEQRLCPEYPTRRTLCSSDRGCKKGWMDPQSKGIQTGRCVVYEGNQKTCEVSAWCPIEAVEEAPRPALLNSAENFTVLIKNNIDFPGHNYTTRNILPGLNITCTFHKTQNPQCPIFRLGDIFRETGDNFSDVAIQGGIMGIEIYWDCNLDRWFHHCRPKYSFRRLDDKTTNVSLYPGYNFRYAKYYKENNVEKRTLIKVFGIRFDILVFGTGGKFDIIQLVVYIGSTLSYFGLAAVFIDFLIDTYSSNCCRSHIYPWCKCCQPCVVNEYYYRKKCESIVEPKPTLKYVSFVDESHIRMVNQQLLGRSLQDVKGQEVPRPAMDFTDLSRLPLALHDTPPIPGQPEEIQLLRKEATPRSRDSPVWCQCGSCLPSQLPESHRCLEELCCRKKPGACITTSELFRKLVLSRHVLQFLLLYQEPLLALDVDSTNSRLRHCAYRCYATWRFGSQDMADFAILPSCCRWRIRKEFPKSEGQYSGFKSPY

As for `Cc1ncc(C2(CNC(=O)c3cc(C)c4[nH]ccc4c3Cl)CCC(F)(F)CC2)cn1` [Example 61, 4-Chloro-7-methyl-1H-indole-5-carboxylic acid [4,4-difluoro-1-(2-methyl-pyrimidin-5-yl)-cyclohexylmethyl]-amide], the IC50 was found to be 4 nM.
Regarding `Cc1ncc(C2(CNC(=O)c3cc(C)c4[nH]ccc4c3Cl)CCCCC2)cn1` [Example 62, 4-Chloro-7-methyl-1H-indole-5-carboxylic acid [1-(2-methyl-pyrimidin-5-yl)-cyclohexylmethyl]-amide], the IC50 was 4.1 nM.
With `Cc1c(C(=O)NCC2(O)CCC(F)(F)CC2)cc(C)c2[nH]ccc12` [Example 63, 4,7-Dimethyl-1H-indole-5-carboxylic acid (4,4-difluoro-1-hydroxy-cyclohexylmethyl)-amide], the concentration for half-maximal inhibition (IC50) is 4 nM.
Take `Cc1c(C(=O)NCC2(O)CCC(F)(F)CC2)ccc2[nH]ccc12` [Example 64, 4-Methyl-1H-indole-5-carboxylic acid (4,4-difluoro-1-hydroxy-cyclohexylmethyl)-amide]: the IC50 worked out at 51 nM.
As to `CCc1c(C(=O)NCC2(O)CCC(F)(F)CC2)ccc2[nH]ccc12` [Example 65, 4-Ethyl-1H-indole-5-carboxylic acid (4,4-difluoro-1-hydroxy-cyclohexylmethyl)-amide], the IC50 worked out at 79 nM.
On to `CC(=O)c1cc(C(=O)NCC2(O)CCC(F)(F)CC2)c(Cl)c2cc[nH]c12` [Example 66, 7-Acetyl-4-chloro-1H-indole-5-carboxylic acid (4,4-difluoro-1-hydroxy-cyclohexylmethyl)-amide], for which the IC50 was determined as 24 nM.
For `CC(C)(O)c1cc(C(=O)NCC2(O)CCC(F)(F)CC2)c(Cl)c2cc[nH]c12` [Example 68, 4-Chloro-7-(1-hydroxy-1-methyl-ethyl)-1H-indole-5-carboxylic acid (4,4-difluoro-1-hydroxy-cyclohexylmethyl)-amide] the value was 7.2 nM; for `Cc1cc(C(=O)NCC2(O)CCCCC2)c(C(F)(F)F)c2cc[nH]c12` [Example 69, 7-Methyl-4-trifluoromethyl-1H-indole-5-carboxylic acid (1-hydroxy-cyclohexylmethyl)-amide], 10 nM.
Regarding `Cc1cc(C(=O)NCC2(O)CCC(F)(F)CC2)c(C(F)(F)F)c2cc[nH]c12` [Example 70, 7-Methyl-4-trifluoromethyl-1H-indole-5-carboxylic acid (4,4-difluoro-1-hydroxy-cyclohexylmethyl)-amide], the IC50 came out at 10 nM.
As to `Cc1c(C(=O)NCC2(O)CCCCC2)cc(C)c2[nH]ccc12` [Example 71, 4,7-Dimethyl-1H-indole-5-carboxylic acid (1-hydroxy-cyclohexylmethyl)-amide], the IC50 came to 12 nM.
In the case of `CCc1cc(C(=O)NCC2(O)CCCCC2)c(Cl)c2cc[nH]c12` [Example 72, 4-Chloro-7-ethyl-1H-indole-5-carboxylic acid (1-hydroxy-cyclohexylmethyl)-amide], the IC50 came out at 4.1 nM.
With `CCc1cc(C(=O)NCC2(O)CCC(F)(F)CC2)c(Cl)c2cc[nH]c12` [Example 73, 4-Chloro-7-ethyl-1H-indole-5-carboxylic acid (4,4-difluoro-1-hydroxy-cyclohexylmethyl)-amide], the IC50 is 4.2 nM.
For `Cc1c(C(=O)NCC2(O)CCCCC2)cc(Cl)c2[nH]ccc12` [Example 74, 7-Chloro-4-methyl-1H-indole-5-carboxylic acid (1-hydroxy-cyclohexylmethyl)-amide] the value was 17 nM; for `Cc1c(C(=O)NCC2(O)CCC(F)(F)CC2)cc(Cl)c2[nH]ccc12` [Example 75, 7-Chloro-4-methyl-1H-indole-5-carboxylic acid (4,4-difluoro-1-hydroxy-cyclohexylmethyl)-amide], 9.5 nM; for `COc1cc(C(=O)NCC2(O)CCCCC2)c(Cl)c2cc[nH]c12` [Example 76, 4-Chloro-7-methoxy-1H-indole-5-carboxylic acid (1-hydroxy-cyclohexylmethyl)-amide], 2.9 nM.
